Hit rate of the full screen: of about 340,000 compounds, about 12,000 (3.5%) were called active. The shares of active, inactive and inconclusive entries below differ from those in the screen. The call rests on the fitted dose curve; in most records, active means well fitted inhibition curve with a large enough effect; inconclusive means small, poorly fitted or top-dose-only effect, or another doubt; inactive means no such curve, though single readings can be large or run the other way. Potencies of inconclusive entries are left out as doubtful fits.
Assay: qHTS Assay for Inhibitors of Hepatitis C Virus (HCV)
Conditions: Huh7.5.1 HCVcc-Cre (HCVcc is cell-culture hepatitis C virus) infection, luciferase reporter, 44 h; activity change, negative = inhibition: at 41.8 µM (top of the series) unless noted
Summary of the method: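 Luciferase read-out (15 sec integration) after a 15 min room-temperature substrate step quantifies HCVcc-Cre infection. Cells, 1,000 per well, had compound added 4 h post-plating, then virus at ~0.5 moi, and were cultured 44 h.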
On the % scale 0 is the no-effect control and ±100 the full control effect; potency means the concentration at half of the fitted maximal effect; tags describe the fitted curve by direction and shape.

Structure (SMILES)	Potency	activity change, negative = inhibition
O=C(CSc1nc(C2CC2)nc2ccccc12)N1c2ccccc2Sc2ccc(C(F)(F)F)cc21	inconclusive [inhibitor, single point]	–
Cn1c2c(c(=O)n(C)c1=O)C(C(F)(F)F)(C(F)(F)F)N=C(c1ccccc1Cl)N2	–	inactive: 9.09%
CCOc1ccc(N=C2NC(=O)C(CC(=O)O)S2)cc1 (stereo not drawn)	–	inactive: 15.1%
COc1ccc(CN(C)C(=O)c2cccc(S(=O)(=O)N3CCN(c4ccccc4)CC3)c2)c(OC)c1OC	active: 8.91 µM	–
CC(/C=C/c1ccccc1F)=N\NC(=O)c1cccc(F)c1	inconclusive [inhibitor, single point]	–
CC(=O)Nc1ccc(C=NNc2nnc(NN=Cc3ccc(NC(C)=O)cc3)c3ccccc23)cc1	active: 22.4 µM	–
CC(C)OC(=O)c1cccc(NC(=O)c2ccccc2)c1	inconclusive [inhibitor, partial curve]	–
O=C(O)Cn1c2ccccc2c2ccccc21	active: 3.98 µM	–
COc1ccc(NC(=O)CSCC(=O)N(C)Cc2c(F)cccc2Cl)cc1	inconclusive [inhibitor, partial curve]	–
Cc1nn(-c2ccccc2)c(C)c1/C=N/NC(=O)c1cc(C23CC4CC(CC(C4)C2)C3)[nH]n1	active: 10 µM	–
Cc1cc(OC(C)C(=O)N2CCN(c3ccccc3)CC2)c2c(C)c(C)c(=O)oc2c1 (stereo not drawn)	inconclusive [inhibitor, single point]	–
COc1ccccc1-c1cccc([C@@H]2C[C@H]3[C@H](CON3C)CN2C(C)=O)c1	inconclusive [inhibitor, single point]	–
COc1ccccc1N(C)S(=O)(=O)c1ccc(C(=O)Nc2cc(F)ccc2C)cc1	active: 6.31 µM	–
CC#CC[N+](C)(C)CCCCCCCCCC	inconclusive [inhibitor, partial curve]	–
Clc1ccccc1CN1CCN(c2ncccn2)CC1	–	inactive: -9.07%
COC(=O)c1ccccc1NC(=O)C1COc2ccccc2O1 (stereo not drawn)	inconclusive [inhibitor, single point]	–
Cc1ccc(C)c(S(=O)(=O)N2CCN(C(C)C(=O)Nc3ccccc3-c3ccccc3)CC2)c1 (stereo not drawn)	inconclusive [inhibitor, partial curve]	–
Cc1cccc(N2C(=O)CSC2c2cccnc2)c1 (stereo not drawn)	–	inactive: 20.9%
CSc1ncccc1C(=O)Nc1cccc(S(=O)(=O)N(C)c2ccccc2)c1	inconclusive [inhibitor, partial curve]	–
O=C(CN1CCN(C(=O)c2ccc(-c3nc4ccccc4s3)o2)CC1)Nc1ccc(F)cc1	active: 12.6 µM	–
COc1cc(OC)cc(C(=O)O/N=C(\N)c2cccc(C)c2)c1	active: 11.2 µM	–
Cc1cc(C)n(-c2cc(N3CCN(S(=O)(=O)c4ccc(Cl)cc4)CC3)ccc2[N+](=O)[O-])n1	inconclusive [inhibitor, single point]	–
COCCn1c(SCc2csc(-c3ccccc3)n2)nc2ccccc21	inconclusive [inhibitor, single point]	–
NC(=S)Cc1nc2n(n1)Cc1ccccc1-2	–	inactive: -6.87%
C[C@@H](NC(=O)c1[nH]cnc1C(=O)Nc1cccc(Cl)c1)c1ccccc1	–	inactive: 0.327%

Structure (SMILES)	Potency	activity change, negative = inhibition
Oc1c(-c2cc(-c3ccco3)[nH]n2)ccc2ccccc12	inconclusive [inhibitor, partial curve]	–
O=S(=O)(c1ccccc1)N1CCN(C(=S)NCCc2ccccc2)CC1	–	inactive: -6.15%
COc1ccc(OC)c(NC(=O)CSc2nnc(-c3ccco3)n2-c2ccccc2)c1	inconclusive [inhibitor, full curve]	–
COc1cc2c(cc1OC)/C(=C/c1ccc(Br)cc1)C(=O)OC2	inconclusive [inhibitor, full curve, poor fit]	–
CN1CCN(c2nc(-c3ccco3)cc(C(F)(F)F)n2)CC1	inconclusive [inhibitor, partial curve]	–
CC1CCc2nc(/C(C#N)=C/c3ccncc3)sc2C1 (stereo not drawn)	–	inactive: 3.59%
Cc1cc(C)c2cc(CNC3CCCC3)c(Cl)nc2c1	inconclusive [inhibitor, partial curve]	–
O=C(c1cccc(S(=O)(=O)N2CCN(c3ccccc3)CC2)c1)N1CCCCCCC1	inconclusive [inhibitor, partial curve]	–
COc1ccc(/C=N/NC(=O)c2cc3c(ccc4ccccc43)o2)c(OC)c1	inconclusive [inhibitor, partial curve]	–
CSCCC(NC(=O)c1ccco1)C(=O)N(C)CC(=O)Nc1c(Cl)cccc1Cl (stereo not drawn)	–	inactive: -5.14%
CCNc1nc(NCC)n2c(SC(C(=O)Nc3cc(Cl)cc(Cl)c3)c3ccccc3)nnc2n1 (stereo not drawn)	inconclusive [inhibitor, single point]	–
CC(=O)N1CCN(c2ccc(NC(=O)COc3ccc(Cl)cc3Cl)cc2)CC1	inconclusive [inhibitor, partial curve]	–
C=CC[C@H]1CC(C)=C[C@H](CC=C)N1C(=O)c1cc(COc2ccccc2SC)on1	active: 12.6 µM	–
CCN(Cc1cc2cc(C)ccc2[nH]c1=O)C(=O)c1cccc(OC)c1	inconclusive [inhibitor, full curve, poor fit]	–
O=C(c1ccc(COc2c(F)c(F)cc(F)c2F)o1)N1CCN(c2ccc(Cl)cc2)CC1	inconclusive [inhibitor, single point]	–
NNc1nc2cccnc2n(CCNc2ncc(C(F)(F)F)cc2Cl)c1=O	–	inactive: -30.5%
O=C(CN1C(=O)NC2(CCCCCC2)C1=O)c1ccc(OC(F)F)cc1OC(F)F	inconclusive [inhibitor, partial curve]	–
CCC(C)NC(=S)Nc1ccc2nc(N3CCN(CC)CC3)cc(C)c2c1 (stereo not drawn)	inconclusive [inhibitor, partial curve]	–
C=CCOC(=O)C1=C(C)NC(SCC(=O)Nc2nccs2)=C(C#N)C1c1ccc(Cl)cc1 (stereo not drawn)	inconclusive [inhibitor, single point]	–
CSc1ccc(CNc2ccc(Cl)cc2)cc1	–	inactive: 5.3%
O=C1c2ccccc2NC(c2cccc(F)c2)N1Cc1ccco1 (stereo not drawn)	–	inactive: -6.96%
O=C(CC1(O)C(=O)Nc2ccccc21)c1ccc(-n2cccc2)cc1 (stereo not drawn)	–	inactive: -2.16%
CCCc1cc(=O)[nH]c(SCC(=O)NC(=O)c2ccccc2)n1	–	inactive: 4.38%
CCc1nc(N)nc(N)c1-c1ccc(N(C)Cc2ccccc2)c([N+](=O)[O-])c1	inconclusive [inhibitor, full curve, poor fit]	–
Cc1[nH]n(-c2ccc([N+](=O)[O-])cc2)c(=O)c1C=NCCc1c[nH]c2ccccc12	inconclusive [inhibitor, partial curve]	–

Structure (SMILES)	Potency	activity change, negative = inhibition
CC(C)c1ccccc1NC(=O)C1CC(=O)N(C2CCCC2)C1 (stereo not drawn)	–	inactive: 12.5%
COc1ccc(C(=O)N2CCCC2=O)cc1	inactive	–
CC(=O)Oc1ccc(-c2ccc(C(=O)OCC(=O)c3c(N)n(C)c(=O)n(C)c3=O)cc2)cc1	inconclusive [inhibitor, single point]	–
CCOC(=O)c1nn(-c2ccc(Cl)cc2)c(C)cc1=O	–	inactive: 10.2%
CN(CC(=O)Nc1ccc(Cl)cc1)C(=O)c1cccc(S(=O)(=O)N2CCN(Cc3ccccc3)CC2)c1	active: 11.2 µM	–
COc1cccc(OCCNc2cc(N3CCCCC3)ccc2[N+](=O)[O-])c1	inconclusive [inhibitor, partial curve, poor fit]	–
CCOc1ccc(Nc2nc3cc(S(=O)(=O)CC)ccc3o2)cc1	–	inactive: -14.2%
CCOC(=O)N1CCN(S(=O)(=O)c2ccc(C(=O)Nc3sc4c(c3C(=O)OC)CCN(C)C4)cc2)CC1	inconclusive [inhibitor, single point]	–
Cc1cc(OCCCCNC(C)C)cc(C(C)C)c1	inconclusive [inhibitor, partial curve]	–
O=C(Nc1nc2cc3c(cc2s1)OCO3)C1CCCCC1	inconclusive [inhibitor, single point]	–
CC1CCCN(CCCOc2ccc([N+](=O)[O-])cc2)C1 (stereo not drawn)	–	inactive: -13.9%
C=CCc1cc(Cl)ccc1OCCOCCN(C)C	inconclusive [inhibitor, partial curve]	–
Cc1cc(=O)oc2c(C)c(OCC(=O)N3CCN(c4ccc(F)cc4)CC3)ccc12	inconclusive [inhibitor, partial curve]	–
O=C(/C=C/c1ccc(OC(F)F)cc1)OCC(=O)N1CCC(c2ccccc2)=N1	inconclusive [inhibitor, single point]	–
O=C(NCc1ccccn1)Nc1ccccc1	–	inactive: 10.7%
CCC(=O)Nc1nnc(S(=O)(=O)N2CCCC2)s1	–	inactive: 18.8%
O=C1CC2(CCN(C(=O)c3cccc(Cl)c3)CC2)Oc2ccccc21	–	inactive: 17.2%
O=C(N/N=C/c1ccc(-c2cccc([N+](=O)[O-])c2)o1)c1ccccc1O	–	inactive: -16.5%
Cc1ccc(C(=O)CC2(O)C(=O)N(C)c3ccc(Br)cc32)c(C)c1 (stereo not drawn)	inactive	–
CCOC(=O)N1CCN(C(=O)c2cn(C)c(=O)c3c2c2ccccc2n3C)CC1	inconclusive [inhibitor, single point]	–
Cc1ccc(C)c(CSCc2nc3ccccc3[nH]2)c1	inconclusive [inhibitor, single point]	–
O=c1[nH]cnc2c1ncn2-c1ccc(Cl)cc1	–	inactive: 9.97%
COc1cccc(-c2ccc3nnc(SCC(=O)Nc4ccc(NC(C)=O)cc4)n3n2)c1	inconclusive [inhibitor, single point]	–
